# Article PMC4336329 (PLoS ONE, 2015)
# Out of some 310,000 compounds screened, about 14,000 (4.5%) showed an effect of 50% or more. The effect is printed as a negative number. The list shows a part of the results.
# Target: human ether-à-go-go-related gene (hERG) potassium channel (human, UniProt Q12809)
# Test: primary screen, population patch clamp on CHO cells stably expressing hERG
# 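Note: peak tail current of the secondary pulse compared with the same well before compound.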
# Chain of human ether-à-go-go-related gene (hERG) potassium channel (Q12809 whole entry, looked up): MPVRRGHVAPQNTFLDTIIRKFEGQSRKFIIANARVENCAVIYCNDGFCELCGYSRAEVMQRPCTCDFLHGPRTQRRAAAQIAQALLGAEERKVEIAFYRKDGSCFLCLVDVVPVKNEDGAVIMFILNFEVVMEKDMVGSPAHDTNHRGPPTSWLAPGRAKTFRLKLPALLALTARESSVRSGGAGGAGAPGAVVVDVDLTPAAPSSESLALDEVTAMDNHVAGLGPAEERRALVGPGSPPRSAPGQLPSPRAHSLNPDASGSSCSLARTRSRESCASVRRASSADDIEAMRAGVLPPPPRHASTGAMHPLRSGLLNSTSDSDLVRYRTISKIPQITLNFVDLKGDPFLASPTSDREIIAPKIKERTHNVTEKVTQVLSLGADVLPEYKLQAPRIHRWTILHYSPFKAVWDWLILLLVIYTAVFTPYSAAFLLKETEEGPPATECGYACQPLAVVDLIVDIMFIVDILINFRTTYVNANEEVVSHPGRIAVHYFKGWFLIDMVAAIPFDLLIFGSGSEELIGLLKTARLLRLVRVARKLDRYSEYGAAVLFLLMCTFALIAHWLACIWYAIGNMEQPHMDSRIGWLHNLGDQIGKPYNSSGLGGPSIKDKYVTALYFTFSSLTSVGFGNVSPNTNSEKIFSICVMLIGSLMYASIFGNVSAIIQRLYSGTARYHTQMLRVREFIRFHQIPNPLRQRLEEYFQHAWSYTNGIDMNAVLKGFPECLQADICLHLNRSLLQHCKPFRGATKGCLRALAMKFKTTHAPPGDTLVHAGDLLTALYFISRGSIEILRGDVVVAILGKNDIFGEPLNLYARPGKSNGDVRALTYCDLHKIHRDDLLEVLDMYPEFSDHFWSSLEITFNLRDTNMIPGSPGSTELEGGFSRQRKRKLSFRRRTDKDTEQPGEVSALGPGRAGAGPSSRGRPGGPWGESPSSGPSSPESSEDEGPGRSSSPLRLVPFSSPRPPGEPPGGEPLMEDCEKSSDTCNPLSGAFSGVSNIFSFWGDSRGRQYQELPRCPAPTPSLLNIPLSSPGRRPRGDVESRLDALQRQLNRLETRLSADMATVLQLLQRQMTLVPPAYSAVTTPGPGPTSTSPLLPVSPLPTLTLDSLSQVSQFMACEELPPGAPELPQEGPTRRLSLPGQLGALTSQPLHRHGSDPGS
row,SMILES,"hERG current change (%, negative = inhibition) at 10uM [%]"
1,O=C(CSc1nnc(-c2cccc(F)c2)o1)N1CCOCC1,16.4
2,CC(=O)COc1ncn(-c2ccccc2)n1,5.85
3,Cc1[nH]n2c(=O)cc(C(C)C)nc2c1-c1ccccc1,-12.1
4,Cc1ccc(NC(=O)CCS(=O)(=O)c2ccc3nc(C)sc3c2)cc1,15.2
5,CC(NC(=O)C1CCCN1S(=O)(=O)c1ccccc1)c1ccccc1 (centres unmarked),22.6
6,COc1ccccc1CNC(=O)C(CC(C)C)NS(=O)(=O)c1ccc2c(c1)oc(=O)n2C (centres unmarked),5.97
7,CCOCCCNC(=O)C(c1ccccc1)N(Cc1ccc2c(c1)OCO2)C(=O)CNC(C)=O (centres unmarked),2.65
8,CCOC(=O)N1CCC(n2c(SCC(=O)N3CCCC3)nc3ccccc3c2=O)CC1,-20.9
9,O=C(COC(=O)c1oc2ccccc2c1CSc1ccc(Cl)cc1)NC1CCCC1,9.37
10,CCOc1ccc2nc(SCC(=O)c3ccc(Cl)s3)sc2c1,-0.0959
11,Cc1c(C(=O)N(Cc2ccc(F)cc2)C2CCS(=O)(=O)C2)oc2ccccc12 (centres unmarked),-25.5
12,CCn1ncc(Br)c1C(=O)Nc1cccc(F)c1,2.54
13,Cn1nc(C(=O)Nc2ccccc2N2CCOCC2)ccc1=O,-24.4
14,CCC(C)(C)C(=O)Nc1cccc(Cl)c1C,19.9
15,Cc1cc(C)nc(SCCC(=O)N2CCOCC2)n1,23.4
16,CCC(C)C(=O)Nc1nnc(SCC(=O)NC2CCCCC2)s1 (centres unmarked),20.9
17,Cc1ccc(C)c(-n2nnnc2SCC(=O)Nc2cccc(-c3nnc4n3CCCCC4)c2)c1,-29.4
18,CCOc1ccc2c3c(c(=O)oc2c1OCC)CCCC3,0.627
19,O=C(O)c1ccccc1C(=O)Nc1ccc(Oc2ccccc2)cc1,23.2
20,C1CC1Cc1noc(CN2CCN(C3C4CC5CC(C4)CC3C5)CC2)n1 (centres unmarked),-48.5
21,N#CC1=C(N)SC(N)=C(C#N)C1c1cccc(Oc2ccccc2)c1,16.9
22,CCOC(=O)/C(C#N)=C/c1cc2ccccc2nc1Cl,-9.56

row,SMILES,"hERG current change (%, negative = inhibition) at 10uM [%]"
1,Cc1cc(NCCO)c2cc(O)ccc2n1.Cl,23.4
2,NC(=O)c1cc([N+](=O)[O-])ccc1N1CCCCC1,-17.2
3,CN1CCSc2ccc(C(=O)Nc3ccc(Cl)cc3)cc21,15.3
4,Nc1cc(=O)[nH]c(SCC(=O)Nc2nc3ccc([N+](=O)[O-])cc3s2)n1,22.8
5,CCN1CCN(C(CNS(=O)(=O)c2ccc(OC)cc2)c2cccnc2)CC1 (centres unmarked),-45.4
6,Cc1cccc(NC(=O)Cn2nc(-c3ccco3)ccc2=O)c1C,10.9
7,CCCc1cc(=O)[nH]c(SCC(=O)Nc2ccc(C)c(S(=O)(=O)N3CCCCC3)c2)n1,6.53
8,O=C(c1nc2ccccc2[nH]1)c1ccccc1[N+](=O)[O-],5.28
9,CCCc1[nH]nc2c1C(c1ccsc1)C(C#N)=C(N)O2 (centres unmarked),-7.53
10,CCO[C@@H]1OC(C(=O)NCc2ccccc2)=C[C@H](C2CCCCC2)[C@H]1CCCO,-17.8
11,O=C(O)CSc1ccc2nnc(-c3cccnc3)n2n1,12.2
12,O=C(NCc1ccccc1)C1=C[C@@H](c2ccc3c(c2)OCO3)C[C@@H](OCc2ccc(CO)cc2)O1,-25
13,O=C(Nc1ccccc1)N1CCOCC1,14.9
14,CC(C)(C)c1ccc(N=C2SCC(=O)N2Cc2cccs2)cc1,9.92
15,CCOc1ccc(-n2ccnc(SCC(=O)Nc3ccc(CC)cc3)c2=O)cc1,7.92
16,NS(=O)(=O)c1ccc(NC(=O)COC(=O)CN2C(=O)C3CC=CCC3C2=O)cc1 (centres unmarked),0.467
17,O=C(NCCCn1ccnc1)c1ccc2ccccc2c1,-17.7
18,CCOC(=O)c1c(C)oc2c1c(C(c1cccnc1)N1CCOCC1)c(O)c1ccccc12 (centres unmarked),16.9
19,COc1cc2c(cc1OC)C(COc1ccccc1OC)N(C(=O)C(C)C)CC2 (centres unmarked),-6.65
20,CSCC[C@H](NC(=O)c1ccc(Cl)c(S(=O)(=O)N2CCCC2)c1)c1nc2ccccc2[nH]1,-30.4
21,O=C(N/N=C/C=C\c1ccco1)c1cccs1,14.7
22,CCn1cc(Cl)c(C(=O)Nc2cc(C(=O)OC)cc(C(=O)OC)c2)n1,5.97
